Assay results as given in the supplement of paper PMC10126150.
Sequences with one replicate were seen in a single cluster, so their values are uncertain.

Tested on: ATP
Assay: switch fluorescence ratio, 500 uM ATP over buffer (Cy3 cluster intensity, sum of 5 cycles each) (fold (ratio)); higher = stronger signal-on switching upon ATP binding; sequences stand for … in TCGTCGGCAGCGTCAGATGTGTATAAGAGACAGTTTTTTTTTTTTTTTTTTTTTTTTT…TC
Details: aptamer strand: ATP DNA aptamer (quencher-CACCTGGGGGAGTATTGCGGAGGAAGG + anchor), 100 nM annealed; ATP concentration: 500 uM; one replicate
Method in brief: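 Clusters with intensities outside 100-1000 RFU were excluded. The remaining Cy3-labelled switching-strand clusters on a modified Illumina MiSeq flow-cell had been annealed to 100 nM quencher-labelled ATP aptamer and imaged in selection buffer, then after 15 min with 500 uM ATP at 22 °C, for five cycles separated by NaOH stripping and re-annealing. The fluorescence ratio, averaged per switch-domain sequence, is each cluster's summed target-cycle Cy3 intensity over its summed buffer-cycle Cy3 intensity.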
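Further: ATP exposure 15 min at 22 °C before imaging.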

Sequence | switch fluorescence ratio
TATACCGTCC | 1.97
ATGTTAGACA | 1.05
ACCCGGATTT | 1.04
CGACTTCAGG | 1.03
GTGGGAGGCG | 0.987
GGGGCTAGGT | 1.01
AATACTGGCG | 1.09
TAATACGCGC | 1.07
ACTACTTGTT | 1.01
GTAGTCATGC | 1.27
ATGAACCTAG | 1.06
CGCCCGTTG | 1.03
TCCTGTTTAC | 1.06
TACAACCCAG | 1.15
TAATAGCTTA | 1.01
CAGTGGATGC | 1.04
TAGGTTCTTA | 1.03
CGTCGTGTCA | 0.938
TTATTCCGCC | 1.64
TCACCGCTTC | 4.48
TTGGCAGAGG | 0.982
GTGGGGCAAC | 0.971
TGAGTCACAC | 0.995
GGGGCAGGAA | 0.969
AGCGGGATTT | 0.982
AGAATGGTTA | 1

Sequence | switch fluorescence ratio
CGTTCCTTA | 1.02
TCAGAGACTG | 1.03
CTTTGATATA | 1.01
TCGAGGCTGC | 1.28
ATATTTCTGA | 1.01
TATATAGATT | 1.01
TAGACACGAG | 1.09
GCTGCAAGTT | 1.01
TTGTCGAAGT | 0.988
AATTTCGAC | 1.06
CTTAGAATTC | 0.971
ACAGGCAGCG | 1.05
TCATCTATTC | 1.04
GGGTCAGTCG | 0.938
TCTCTCCTAT | 1.15
GATATTCTA | 1.03
GAAGGAGAAT | 1.02
CTGATCGGTG | 1.04
GCACCCTTGT | 1.02
GGAAGAGAGC | 0.968
TAGTATACCC | 1.05
CCTCGTTGGG | 1.04
GCCTAGACTG | 0.853
CTCCATAATG | 1.32
CTGATGAAGG | 1.01
CGGTGGCAA | 1.42

Sequence | switch fluorescence ratio
CGTTCCAATT | 1.08
TCTCGATGTA | 0.975
CCCTATTCGC | 1.04
CATCGCGGGG | 1.01
ACCATGTGTT | 1.05
ACCGGCTGCC | 0.992
GGCCTGCAAA | 1.01
TTAGGTTATG | 1.03
TGCTTAAAAA | 0.994
AAGACGAAAG | 1.02
ACTCTTTCAG | 0.979
GTTAGAAATT | 0.987
TGACAATTCG | 1
GGTCCTAAGC | 1.04
ACGTCCTTAG | 1.02
TCTTTAACTG | 1.01
ATATACTGCG | 1.04
GAACTGTGAA | 0.973
ATGCATGGCG | 1.04
CCTTGTCCGT | 1.08
TTTACAGAAA | 1
AAAAAGCATT | 1.21
ACTTCACTTT | 1.31
TATGGGTGC | 1.07
GTCACCTTT | 0.98
ATTAGAAGAG | 0.981

Sequence | switch fluorescence ratio
TAGCTCGAGG | 1.03
TTTCAGATCA | 0.973
TACCTTACAG | 1.37
TGCCCCATTT | 1.05
TGCGAATTCA | 0.975
AGTGAGGGAG | 0.989
TGTACGCGGT | 1
AAAGAGATTT | 0.971
TCCGGGATT | 1.06
AAATACACGG | 1.07
AAGCTGCTAT | 0.976
GGTGATTTT | 1.03
TACATGTTAC | 1.13
AAGCGGTTGT | 0.989
GGAGTATTCG | 1
TATCTACTTT | 1.02
GGTTGTAACT | 0.99
GGTTTCCAAC | 0.993
TCTCCGTTAT | 1.72
AGTTGTAAGT | 0.99
AACATTATT | 1.05
TTGACTTTAG | 0.968
CTTACACGTT | 1.02
AGCCGCATGT | 1.79
CAGAAATAGG | 1.02
AATTAATCTT | 0.943

Sequence | switch fluorescence ratio
AAGAATTGGA | 0.994
TGTCAGGCTA | 0.966
TGATTCTTTG | 0.995
GCGTTGTAAT | 0.975
GATCCAGGAT | 0.985
ATCGCCCGGA | 0.997
GGGCGCGA | 1.02
CGATGTATGA | 1.02
GAAAACTTCG | 1.3
TCGGGATGGG | 1
AGAGAGTAGG | 1.03
ATCCTGCGGT | 0.995
GGCGCTTCTA | 1.03
GTAATCGTCC | 1.08
AGGGAGCTCA | 1.03
AAAAACTCGG | 1.01
AGTGGATTC | 0.958
AAAAGGAGCT | 0.967
CATGATGGCG | 0.976
TCTGTTCCGT | 0.973
TTAGACAAAT | 0.984
CTCGTAGTGA | 1.03
AACTTCCGTC | 1.26
GGTAGATTTG | 0.986
TCGAGGCCCC | 1.04
CGAGGACTCA | 1.04

Sequence | switch fluorescence ratio
GCCATCCACA | 1.06
TGGTTTTCGA | 0.992
CTCCGTCAAC | 3
CCGGGAGT | 0.984
CCTCTTGTG | 1.01
AATGGCGCTA | 0.968
AATAAGATAG | 1
CTGCGCCAAG | 1.22
CCCAGGAGCA | 1.61
AAATGACCAG | 0.98
AGGTCGGTC | 0.962
GAGTTAGAGG | 1.02
TTATAATAGC | 0.944
GGTGTCGG | 0.996
TTCGCATGTA | 1.03
TGGCCGCCGG | 1
TCATTTTTAA | 1.03
CCTGAGCACA | 1.99
TGGATTTGCT | 0.998
ACGGCTCCTT | 1.06
TTTGTACAGC | 1.08
AAAAAATGAG | 0.998
GCTGTGCATC | 1.05
AAGACCTCGT | 1.02
TCCGATTGT | 1.68
ACCATTGTAT | 1.02

Sequence | switch fluorescence ratio
ACTTGAAGT | 1.02
GCTTGGTTGT | 1.02
TCATTAGTTC | 0.992
AGAGAAGGGC | 1.05
TTTATGCTAT | 1.01
TTTACCATA | 1.09
TCCCGGCAAA | 3
CATCAGTGCC | 0.985
TCTACTTGTT | 1.05
GGCAACAGAA | 1.02
ATTCTAGGAA | 1.06
TGCGTTGGTA | 0.965
AGCCCCAGC | 1.06
TCATTAGCGT | 0.974
TAATTGTAGT | 1.03
TCATAGTATA | 0.98
CAACTCATTT | 1.04
AAAATTACGG | 1.02
AGTGGCGTAG | 0.999
GGTCCAAGCT | 1.03
GCCTACAACG | 0.984
ATGAGCAGTC | 1.36
GATTTGGAAC | 1.01
AAGTACACGA | 1.2
TGAGTTAATC | 1
CTGGTTGTTC | 1.06

Sequence | switch fluorescence ratio
GTAGTGCGCG | 1.02
GTAAGTAAAT | 1.06
AGGAAAGGTT | 0.984
CCGAAAGGCT | 0.967
TAGGTCGAAG | 0.981
GTAGGTATTG | 0.993
AAAGCATATA | 1.13
AGTTTCTAAC | 1.01
AGATACGTTC | 0.956
ACTTACCGTC | 1.12
CGGTGCTCCG | 1.03
GTCAGCCTAG | 1.02
TCGCCGGTAT | 1.01
GTTTACAC | 0.972
TAAGTGCGTC | 1.04
GGCAGTGGGA | 1.03
TGCGGATTTT | 1.04
ACGAAAAACC | 1.02
CATAGGCGGG | 0.977
